In the supplement of paper PMC10126150:
Sequences with one replicate were seen in a single cluster, so their values are uncertain.

Tested on: ATP
Assay: switch fluorescence ratio, 500 uM ATP over buffer (Cy3 cluster intensity, sum of 5 cycles each) (fold (ratio)); higher = stronger signal-on switching upon ATP binding; sequences stand for … in TCGTCGGCAGCGTCAGATGTGTATAAGAGACAGTTTTTTTTTTTTTTTTTTTTTTTTT…TC
Conditions: aptamer strand: ATP DNA aptamer (quencher-CACCTGGGGGAGTATTGCGGAGGAAGG + anchor), 100 nM annealed; ATP concentration: 500 uM; one replicate
Summary of the method: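 For every switch-domain sequence, the fluorescence ratio is the mean of per-cluster values, each being summed target-cycle Cy3 intensity over summed buffer-cycle Cy3 intensity. Clusters outside 100-1000 RFU were excluded. On a modified Illumina MiSeq flow-cell, the Cy3-labelled switching-strand clusters were annealed to 100 nM quencher-labelled ATP aptamer, imaged in selection buffer and then after 15 min with 500 uM ATP at 22 °C. Five such cycles were run, with NaOH stripping and re-annealing between them.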
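Further: ATP exposure 15 min at 22 °C before imaging.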

Row | Sequence | switch fluorescence ratio
1 | GGCCTGCTGC | 0.999
2 | ACAGATAGTT | 1.03
3 | ATTTGACCTG | 0.97
4 | ACAGGGCGCG | 1.03
5 | ACCCTTTGTA | 0.997
6 | AATGGCCGC | 0.961
7 | CACTTTCATA | 1.02
8 | CCTGCCCTCC | 2.75
9 | TACGCACCAT | 1.45
10 | CTTGAGGGTG | 1.13
11 | ATCAGTTCTG | 0.983
12 | GAGATCATAG | 1.02
13 | GGACCCAGAA | 1.02
14 | GTTGATTTCC | 1.05
15 | TTTTTAGCAA | 1.6
16 | AACGGCACTC | 1.67
17 | TGCTAATGTT | 1
18 | ATTGAGGACG | 1.07
19 | TAGAAATCGA | 1.01
20 | GGTAATGTAG | 1.03
21 | TGCAAGCTCT | 1.08
22 | AGTAACGTAG | 0.976
23 | TGAGATGGG | 1.01
24 | GGGAACGAGC | 0.947
25 | TAGTCTTTGT | 0.961
26 | TCTATACGCG | 1.08

Row | Sequence | switch fluorescence ratio
27 | TATGAGCCGG | 0.958
28 | CATGCTACCT | 1.08
29 | GCTAGTTATC | 1
30 | GGGTTTAGCC | 0.996
31 | ATTACGTTGC | 1.05
32 | ACTACCGCTG | 1.46
33 | GAGGGGCCC | 0.926
34 | CTCGGTATCG | 0.992
35 | ATGCACGCAC | 1.8
36 | TGGACGACGA | 0.977
37 | CGAAGACGCG | 1.2
38 | GCACGTATGC | 1.02
39 | AAACTGACT | 1.16
40 | CCACTATGTG | 1.01
41 | TGTTAACACG | 0.944
42 | TGCGAGGGAA | 1.16
43 | GGTTACAGGT | 1.02
44 | AGGTTGTG | 0.984
45 | TGTGACAATT | 0.972
46 | TCTGTCTCTA | 0.994
47 | GTTGCTTATG | 0.957
48 | ACCTGGTTAG | 0.993
49 | TAGGAAATAT | 1.03
50 | AATTCGGCAA | 1.75
51 | GGTAGTTCTC | 1.02
52 | GCTCGCTCGA | 1.05

Row | Sequence | switch fluorescence ratio
53 | CATAAGTGGC | 1.04
54 | ATCCCTTACG | 1.04
55 | TATGCCGCTG | 1.01
56 | TTGCGCCAGG | 1.27
57 | CCCAGACATC | 1.08
58 | TTAATCAGCT | 1.03
59 | CTTAAGGAGA | 1.04
60 | GGGTCCGTCG | 0.991
61 | AGTCGGTTTA | 1.01
62 | TAATCGGTAT | 0.978
63 | ATGTAGTTGA | 1.03
64 | GAAAGTTGTG | 1.03
65 | GTTCGTGGCA | 1.04
66 | CGGTGCGGTT | 0.989
67 | ATGGGCGGGA | 0.998
68 | GAGGTTACTT | 0.993
69 | TGCGAGGTA | 1.05
70 | ACCGCGCTAT | 1.52
71 | AGAAGAGAAT | 1.05
72 | CACTTCCGAG | 2.53
73 | TGGCGCAGGC | 1.14
74 | CAGTCGTATT | 1.05
75 | TAGATACTCT | 1.09
76 | TGCAAGCTAC | 2.36
77 | AGGGGCCACA | 0.978
